Laboratory results published in a collection of fitness landscapes (doi:10.1016/j.celrep.2020.107928).
The full ranking holds about 81,000 sequences; the median of “one-hybrid fitness for binding parS DNA” is about -0.17, and the highest 2% start at about 0.51. This is one part of the list.

B1: Caulobacter ParB omega fusion; a variant is named by its letters at X, in order, B8GW30 (parent)
chain: MESVVVGEPGMSEGRRGLGRGLSALLGEVDAAPAQAPGEQLGGSREAPIEILQRNPDQPRRTFREEDLEDLSNSIREKGVLQPILVRPSPDTAGEYQIVAGERAWRAAQRAGLKTVPIMVRELDDLAVLEIGIIENVQRADLNVLEEALSYKVLMEKFERTQENIAQTIGKSXSHVANXMRLLXLPDEVQSYLVSGELTAXHARAIAAAADPVALAKQIIEGGLSVRETEALARKAPNLSAGKSKGGRPPRVKDTDTQALESDLSSVLGLDVSIDHRGSTGTLTITYATLEQLDDLCNRLTRGI

Variants of: B1
Test: one-hybrid fitness for binding parS DNA (scaled: cognate 1, non-cognate 0); higher = stronger binding
Conditions: with parS DNA site
Procedure, shortened: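 Values were rescaled so that cognate is 1 and non-cognate is 0. Each is a fitness, the log change in a variant's read ratio to wild type from Illumina reads of plasmids before and after selection, with three replicate libraries pooled and variants under 10 reads dropped. Selection of the Caulobacter ParB libraries, four specificity codons randomised, used E. coli USO with a HIS3 reporter, site 19 bp from the promoter, on M9-minus-histidine with 0.1 mM IPTG and 5 mM 3-AT for 48 hours at 37°C.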

| Variant | one-hybrid fitness for binding parS DNA |
| --- | --- |
| QFEV | ≤ 0.2 |
| IAQS | ≤ 0.2 |
| NRND | ≤ 0.2 |
| MPRL | ≤ 0.2 |
| SCFR | ≤ 0.2 |
| HPGW | ≤ 0.2 |
| HSNL | ≤ 0.2 |
| HKSR | ≤ 0.2 |
| AKTT | ≤ 0.2 |
| LARN | ≤ 0.2 |
| HSAW | ≤ 0.2 |
| FAKD | ≤ 0.2 |
| LKAA | ≤ 0.2 |
| CALA | ≤ 0.2 |
| RSTS | 0.986 |
| TLFR | ≤ 0.2 |
| KTLG | ≤ 0.2 |
| VHLC | ≤ 0.2 |
| FTTE | ≤ 0.2 |
| ISQM | ≤ 0.2 |
| ERPL | ≤ 0.2 |
| ARRC | ≤ 0.2 |
| RSHY | 0.491 |
| SLYD | ≤ 0.2 |
| SMYC | ≤ 0.2 |

| Variant | one-hybrid fitness for binding parS DNA |
| --- | --- |
| RSLV | ≤ 0.2 |
| KKTS | ≤ 0.2 |
| RYKE | ≤ 0.2 |
| EGFG | ≤ 0.2 |
| AQNV | ≤ 0.2 |
| TMVL | ≤ 0.2 |
| LQQS | ≤ 0.2 |
| QATP | ≤ 0.2 |
| QEKE | ≤ 0.2 |
| AMNH | ≤ 0.2 |
| RGHW | ≤ 0.2 |
| EMFG | ≤ 0.2 |
| DLSA | ≤ 0.2 |
| NCYL | ≤ 0.2 |
| IFPE | ≤ 0.2 |
| GADT | ≤ 0.2 |
| ANYS | ≤ 0.2 |
| LDAL | ≤ 0.2 |
| QVRG | ≤ 0.2 |
| VGVT | ≤ 0.2 |
| EKMM | ≤ 0.2 |
| HPKS | ≤ 0.2 |
| HVYC | ≤ 0.2 |
| WRWT | ≤ 0.2 |
| RMPG | 0.775 |

| Variant | one-hybrid fitness for binding parS DNA |
| --- | --- |
| QWPA | ≤ 0.2 |
| GTYG | ≤ 0.2 |
| RWSS | 0.912 |
| RESK | ≤ 0.2 |
| NRAA | ≤ 0.2 |
| ESKF | ≤ 0.2 |
| YQTR | ≤ 0.2 |
| GFNT | ≤ 0.2 |
| WGNR | ≤ 0.2 |
| TLRH | ≤ 0.2 |
| CEIK | ≤ 0.2 |
| NSTG | ≤ 0.2 |
| EHTS | ≤ 0.2 |
| AQPA | ≤ 0.2 |
| VRKW | ≤ 0.2 |
| PAAE | ≤ 0.2 |
| ILTP | ≤ 0.2 |
| HTQF | ≤ 0.2 |
| FCNG | ≤ 0.2 |
| VRGW | ≤ 0.2 |
| YMPN | ≤ 0.2 |
| CNTL | ≤ 0.2 |
| WLRG | ≤ 0.2 |
| GDPS | ≤ 0.2 |
| QFPG | ≤ 0.2 |

| Variant | one-hybrid fitness for binding parS DNA |
| --- | --- |
| TVTK | ≤ 0.2 |
| ESLK | ≤ 0.2 |
| QHVR | ≤ 0.2 |
| RDQQ | ≤ 0.2 |
| VTKV | ≤ 0.2 |
| WLQG | ≤ 0.2 |
| WQLK | ≤ 0.2 |
| FRRV | ≤ 0.2 |
| HSSI | ≤ 0.2 |
| QRLG | ≤ 0.2 |
| VGTT | ≤ 0.2 |
| CGAI | ≤ 0.2 |
| TSHP | ≤ 0.2 |
| EPGR | ≤ 0.2 |
| CPRY | ≤ 0.2 |
| KPHQ | ≤ 0.2 |
| MRVV | ≤ 0.2 |
| VRYV | ≤ 0.2 |
| IMVT | ≤ 0.2 |
| ATIY | ≤ 0.2 |
| IKEC | ≤ 0.2 |
| GASA | ≤ 0.2 |
| AASL | ≤ 0.2 |
